{"source": "PubChem BioAssay AID651820", "about": "(National Center for Advancing Translational Sciences (NCATS), 2012)", "note": "The campaign covered roughly 340,000 compounds. About 12,000 (3.5%) were called active. Inconclusive results, whose numbers are uncertain, are shown with a selection of clear calls. The call rests on the fitted dose curve; in most records, active means well fitted inhibition curve with a large enough effect; inconclusive means small, poorly fitted or top-dose-only effect, or another doubt; inactive means no such curve, though single readings can be large or run the other way. Potencies of inconclusive entries are left out as doubtful fits. Potency means the concentration at half of the fitted maximal effect; tags describe the fitted curve by direction and shape.", "data": [{"assay": "qHTS Assay for Inhibitors of Hepatitis C Virus (HCV)", "settings": "Huh7.5.1 HCVcc-Cre (HCVcc is cell-culture hepatitis C virus) infection, luciferase reporter, 44 h; series mostly up to 41.8 µM", "procedure,_shortened": "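Compounds are dispensed onto cells plated 4 h earlier at 1,000 per well, with HCVcc-Cre virus (about 0.5 moi) added next. Following 44 h of culture, luminescent signal is measured for 15 sec after 15 min with substrate at room temperature.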", "values": [{"smiles": "O=C(NCc1ccco1)C12CN(Cc3ccccc3)CC1C(c1cccc([N+](=O)[O-])c1)=NO2", "note": "(stereo not given)", "Potency": "inactive"}, {"smiles": "COc1c(F)c(F)c(C(=O)Nc2ccc(-c3nc4ccccc4[nH]3)cc2)c(F)c1F", "Potency": "inconclusive [inhibitor, full curve, poor fit]"}, {"smiles": "O=S(=O)(c1ccc(Cl)cc1)c1nc(-c2ccco2)oc1N1CCCCC1", "Potency": "inconclusive [inhibitor, partial curve]"}, {"smiles": "CC(=O)c1cccc(NC(=O)CN2CCc3cc4c(cc3C2C)OCCCO4)c1", "note": "(stereo not given)", "Potency": "inconclusive [inhibitor, partial curve]"}, {"smiles": "Cc1cc(C)c(S(=O)(=O)N2CCCCC2)cc1N(C)S(=O)(=O)c1ccc(Cl)cc1", "Potency": "active: 31.6 µM"}, {"smiles": "CCCOC(=O)CSC1=C(C#N)C(c2ccccc2Cl)CC(=O)N1", "note": "(stereo not given)", "Potency": "active: 31.6 µM"}, {"smiles": "COc1ccc(-c2cc(C(F)(F)F)nc(-n3ccnc3)n2)cc1", "Potency": "inconclusive [inhibitor, partial curve]"}, {"smiles": "Cc1ccc(N=C2NC(=O)/C(=C/c3cccs3)S2)cc1C", "Potency": "inconclusive [inhibitor, partial curve]"}, {"smiles": "Cc1csc2ncc(C(=O)NCc3ccc4c(c3)OCO4)c(=O)n12", "Potency": "inconclusive [inhibitor, partial curve]"}, {"smiles": "CCn1c(=O)n(CC)c2cc(S(=O)(=O)NCCOc3ccccc3)c(C)cc21", "Potency": "inconclusive [inhibitor, single point]"}, {"smiles": "C=C(C)CSc1nc2nc(C)cc(C)n2n1", "Potency": "inactive"}, {"smiles": "Cc1ccc(S(=O)(=O)N2CCN(C(=O)CCCOc3ccc(Cl)cc3C)CC2)cc1", "Potency": "inconclusive [inhibitor, partial curve]"}, {"smiles": "NS(=O)(=O)c1ccc(NC(=O)C2CCCO2)cc1", "note": "(stereo not given)", "Potency": "inactive"}, {"smiles": "O=[N+]([O-])c1cccc(N=Nc2ccc(O)cc2O)c1", "Potency": "active: 1.78 µM"}, {"smiles": "CCC(C)NS(=O)(=O)c1ccc(S(=O)(=O)N(CCc2ccc(OC)c(OC)c2)Cc2cccs2)cc1", "note": "(stereo not given)", "Potency": "active: 11.2 µM"}, {"smiles": "CCC1COC(c2cccn2Cc2ccccc2Cl)=N1", "note": "(stereo not given)", "Potency": "inactive"}, {"smiles": "COc1cccc(-n2cnnc2SC(C)C(=O)NC2CCCC2)c1", "note": "(stereo not given)", "Potency": "inconclusive [inhibitor, partial curve]"}, {"smiles": "Cc1cc(NC(=O)CSc2ccc3ccccc3c2)no1", "Potency": "inconclusive [inhibitor, partial curve]"}, {"smiles": "CCCCCn1c(=O)c(-c2nc3ccccc3[nH]2)c(O)c2ccccc21", "Potency": "inconclusive [inhibitor, partial curve]"}, {"smiles": "COc1cc(CNc2ccc3c(c2)OCCO3)ccc1OCC(N)=O", "Potency": "inactive"}, {"smiles": "CCCCNC(=O)c1c(CSc2ccc(Cl)cc2)noc1C(=O)NCCC", "Potency": "inconclusive [inhibitor, full curve, poor fit]"}, {"smiles": "COc1ccc(C(=O)CCC(=O)NCc2cc(OC)cc(OC)c2)cc1", "Potency": "inactive"}, {"smiles": "CC(=O)Nc1ccc(C2(c3ccc(NC(C)=O)cc3)NC(=O)c3ccccc32)cc1", "Potency": "inactive"}, {"smiles": "C=CCn1cccc(C(=O)Nc2cc(OC)ccc2OC)c1=O", "Potency": "inconclusive [inhibitor, single point]"}, {"smiles": "CCCN1CCN(CCCNC(=O)Cn2nc(C)n3c(cc4cc(OC)ccc43)c2=O)CC1", "Potency": "inactive"}, {"smiles": "CCC(CO)Oc1cc(NC(=O)c2ccccc2[N+](=O)[O-])c2ncn(C(C)C)c2c1", "note": "(stereo not given)", "Potency": "inconclusive [inhibitor, partial curve]"}, {"smiles": "COc1ccccc1Nc1nnc(SCc2nnc(-c3cc(OC)c(OC)c(OC)c3)o2)s1", "Potency": "inconclusive [inhibitor, single point]"}, {"smiles": "COc1ccc(NC(=O)CN(C)S(=O)(=O)c2ccc(Cl)cc2)cc1Cl", "Potency": "inconclusive [inhibitor, single point]"}, {"smiles": "CN(Cc1cccs1)C(=O)c1cccc(S(=O)(=O)N2CCCCCC2)c1", "Potency": "inconclusive [inhibitor, partial curve]"}, {"smiles": "CNC(=O)c1c(NC(=O)C(C)C)sc2c1CCC2", "Potency": "inconclusive [inhibitor, single point]"}, {"smiles": "COc1cccc(/C=C2\\SC(=S)N(CCC(=O)Nc3ccc(O)cc3)C2=O)c1", "Potency": "inconclusive [inhibitor, single point]"}, {"smiles": "CCN(CC)C(=O)CSc1nc(-c2ccco2)cc(C(F)(F)F)c1C#N", "Potency": "inconclusive [inhibitor, partial curve]"}, {"smiles": "CC(Oc1ccc(Cl)cc1Cl)C(=O)Nc1ccc(N2CCN(C)CC2)cc1", "note": "(stereo not given)", "Potency": "inconclusive [inhibitor, single point]"}, {"smiles": "COc1cccc(CCNC(=O)COc2cccc3c2OC(C)(C)C3)c1", "Potency": "inactive"}, {"smiles": "Clc1ccc2c(N3CCCC3)ccnc2c1", "Potency": "inconclusive [inhibitor, single point]"}, {"smiles": "COc1ccc(CCN(C)C(=S)Nc2ccc(SC(F)F)cc2)cc1OC", "Potency": "inconclusive [inhibitor, single point]"}, {"smiles": "O=[N+]([O-])c1ccc(Cl)c(/C=N/n2c(C3CCCCC3)n[nH]c2=S)c1", "Potency": "inconclusive [inhibitor, partial curve]"}, {"smiles": "O=c1cc(CCl)nc(Cc2c(Cl)cccc2Cl)[nH]1", "Potency": "inconclusive [inhibitor, single point]"}, {"smiles": "C=CCSc1nc2c(c(C3CC=CCC3)c1C#N)CCC2", "note": "(stereo not given)", "Potency": "inactive"}, {"smiles": "Cc1sc2ncnc(N3CCC(C(=O)Nc4ccccc4C(C)(C)C)CC3)c2c1C", "Potency": "inactive"}, {"smiles": "CN1CCN(c2ccc([N+](=O)[O-])c3cccnc23)CC1", "Potency": "inconclusive [inhibitor, single point]"}, {"smiles": "COc1cccc(N2CCN(S(=O)(=O)c3ccc(-n4cnnn4)cc3)CC2)c1", "Potency": "inactive"}, {"smiles": "CCCCN(C(=O)Cc1coc2cc(C)c(C)cc12)c1c(N)n(Cc2ccccc2)c(=O)[nH]c1=O", "Potency": "inconclusive [inhibitor, single point]"}, {"smiles": "COc1ccc(S(=O)(=O)N2CCOC2CNC(=O)C(=O)NCCN(C)C)cc1", "note": "(stereo not given)", "Potency": "inactive"}, {"smiles": "CCN(c1ccccc1)c1nc(=O)c2cccnc2s1", "Potency": "inactive"}, {"smiles": "CCc1ccccc1NC(=O)c1ccccc1Sc1ccc([N+](=O)[O-])cc1Cl", "Potency": "inconclusive [inhibitor, partial curve]"}, {"smiles": "N#Cc1cccc(Nc2c3c(nc4ccccc24)CCCC3)c1", "Potency": "inconclusive [inhibitor, single point]"}, {"smiles": "COc1ccc(CC(=O)OCC(=O)Nc2ccc3c(c2)OCO3)cc1", "Potency": "inactive"}, {"smiles": "COc1cccc(-c2cc3nc4c(c(N5CCC6(CC5)OCCO6)n3n2)CCC4)c1", "Potency": "active: 15.8 µM"}, {"smiles": "Cc1ccc(C)c(SCC(=O)Nc2cccc(S(=O)(=O)NC3=NCCCCC3)c2)c1", "Potency": "inconclusive [inhibitor, partial curve]"}, {"smiles": "Cc1cc(Sc2nc(NC(C)(C)C)nc(N3CCOCC3)n2)nc(Cl)n1", "Potency": "inconclusive [inhibitor, single point]"}, {"smiles": "COc1ccc2c(c1OC)C(=O)N1C2SC(C)(C)[C@H]1C(=O)NC1CC1", "note": "(stereo not given in full)", "Potency": "inactive"}, {"smiles": "N#Cc1cc(Oc2ccccc2)c(-n2nnc3ccccc32)cc1C#N", "Potency": "inactive"}, {"smiles": "CN1CCN(c2ccccc2NC(=O)COc2ccc(Cl)cc2)CC1", "Potency": "inactive"}, {"smiles": "COc1ccccc1C(=O)Nc1ccc(N2CCN(S(C)(=O)=O)CC2)cc1", "Potency": "inactive"}, {"smiles": "Cc1nc(C)c(-c2ccc(SCC(=O)Nc3cccc(Cl)c3)nn2)s1", "Potency": "active: 10 µM"}, {"smiles": "O=C(Nc1ccc(F)c(Cl)c1)Nc1ccc(Cl)cn1", "Potency": "inconclusive [inhibitor, single point]"}, {"smiles": "COc1ccccc1/C=C1\\SC(=S)N(CCC(=O)Nc2cc(C)on2)C1=O", "Potency": "inconclusive [inhibitor, single point]"}, {"smiles": "COc1ccc2cc(C)c3nnc(SCC(=O)Nc4nc(-c5ccccc5)cs4)n3c2c1", "Potency": "inconclusive [inhibitor, partial curve, poor fit]"}, {"smiles": "CCN(C[C@H]1N[C@@](C)(C(=O)OC)[C@H]2C(=O)N(C)C(=O)[C@@H]12)C(=O)c1ccccc1", "Potency": "inconclusive [inhibitor, full curve]"}, {"smiles": "Cn1c2ccccc2c(=O)c2ccc(C#Cc3ccccn3)cc21", "Potency": "inactive"}, {"smiles": "O=[N+]([O-])c1ccc(C2CN=C(Nc3ccccc3)S2)cc1", "note": "(stereo not given)", "Potency": "inconclusive [inhibitor, single point]"}, {"smiles": "Cc1ccc(S(=O)(=O)c2ccc([N+](=O)[O-])o2)cc1", "Potency": "active: 3.55 µM"}, {"smiles": "COc1ccccc1CN1CCN(C(=O)COc2ccccc2)CC1", "Potency": "inconclusive [inhibitor, single point]"}, {"smiles": "COc1ccc(S(=O)(=O)N2CCCCC2)cc1NC(=O)CNc1ccc(F)cc1C", "Potency": "inconclusive [inhibitor, partial curve]"}, {"smiles": "CN(Cc1ccccc1)C(=O)c1ccc(NC(=O)Cc2ccc(NC(=O)C3CCN(S(=O)(=O)c4cccc([N+](=O)[O-])c4)CC3)cc2)cc1", "Potency": "active: 12.6 µM"}, {"smiles": "O=C(O)c1cc2ncc(CCO)cn2n1", "Potency": "inactive"}, {"smiles": "CCC1(c2ccccc2)NC(=O)N(CC(=O)Nc2cc(S(=O)(=O)N3CCCCC3)ccc2N(C)C)C1=O", "note": "(stereo not given)", "Potency": "inconclusive [inhibitor, single point]"}, {"smiles": "COc1ccc(CCNC(=O)c2cc(S(=O)(=O)N3CCCCC3)ccc2Cl)cc1", "Potency": "inconclusive [inhibitor, partial curve, poor fit]"}, {"smiles": "C[C@@H]1CN([C@@H](C)CO)C(=O)Cc2cc(NC(=O)Nc3cccc4ccccc34)ccc2O[C@@H]1CN(C)Cc1ccc(C(F)(F)F)cc1", "Potency": "inconclusive [inhibitor, partial curve]"}]}]}
